In article PMC4336329 (PLoS ONE, 2015):
The campaign covered roughly 310,000 compounds. About 2,200 (0.71%) showed an effect of 50% or more. Effects have a minus sign here. The list shows a part of the results.

The molecules below were run against human ether-à-go-go-related gene (hERG) potassium channel (human, UniProt Q12809) (assay: primary screen, population patch clamp on CHO cells stably expressing hERG).
Chain of human ether-à-go-go-related gene (hERG) potassium channel (Q12809 whole entry, looked up): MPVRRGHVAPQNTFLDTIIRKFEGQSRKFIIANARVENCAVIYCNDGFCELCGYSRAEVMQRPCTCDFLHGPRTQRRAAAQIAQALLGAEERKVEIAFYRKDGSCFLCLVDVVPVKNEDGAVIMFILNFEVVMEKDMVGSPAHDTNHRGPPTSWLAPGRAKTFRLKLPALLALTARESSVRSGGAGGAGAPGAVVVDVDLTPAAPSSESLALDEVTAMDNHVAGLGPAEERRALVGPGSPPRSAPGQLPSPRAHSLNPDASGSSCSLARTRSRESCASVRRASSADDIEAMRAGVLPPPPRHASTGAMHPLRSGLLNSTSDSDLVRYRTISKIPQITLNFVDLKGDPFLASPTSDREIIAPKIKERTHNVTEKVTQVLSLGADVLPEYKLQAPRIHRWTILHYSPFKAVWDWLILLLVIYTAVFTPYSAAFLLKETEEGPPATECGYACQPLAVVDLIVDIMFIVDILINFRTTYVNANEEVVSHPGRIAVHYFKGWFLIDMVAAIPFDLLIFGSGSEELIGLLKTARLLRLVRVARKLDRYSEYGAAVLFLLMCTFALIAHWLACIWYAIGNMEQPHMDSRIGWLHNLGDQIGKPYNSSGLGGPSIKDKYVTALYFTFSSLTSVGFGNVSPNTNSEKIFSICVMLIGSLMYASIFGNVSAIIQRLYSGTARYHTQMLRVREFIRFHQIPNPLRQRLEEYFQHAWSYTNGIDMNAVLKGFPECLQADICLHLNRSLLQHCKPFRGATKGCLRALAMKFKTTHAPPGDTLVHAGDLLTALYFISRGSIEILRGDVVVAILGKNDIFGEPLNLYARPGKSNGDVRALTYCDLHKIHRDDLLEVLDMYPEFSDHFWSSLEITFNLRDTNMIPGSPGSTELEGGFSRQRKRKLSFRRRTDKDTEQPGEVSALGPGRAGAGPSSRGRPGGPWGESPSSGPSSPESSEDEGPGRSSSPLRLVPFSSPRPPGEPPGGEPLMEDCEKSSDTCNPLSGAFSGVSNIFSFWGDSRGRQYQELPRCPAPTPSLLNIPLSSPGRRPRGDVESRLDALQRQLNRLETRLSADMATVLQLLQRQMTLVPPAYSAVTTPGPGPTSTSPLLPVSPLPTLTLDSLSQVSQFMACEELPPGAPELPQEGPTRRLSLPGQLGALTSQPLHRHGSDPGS

Row | Compound | hERG current change (%, negative = inhibition) at 1uM
1 | COc1ccc(Nc2nnc(Cc3ccccc3)c(=O)[nH]2)c(OC)c1 | 8.03%
2 | COc1ccccc1CC(=O)N(CCC#N)CCC#N | -3.58%
3 | CC1CCCCN1CC(=O)NC(=O)NCc1ccccc1 (stereo not shown) | 10.7%
4 | O=C(CSc1ccc(-c2ccco2)nn1)N1CCCCC1 | 6.81%
5 | Clc1ccc(Cc2nnc(-c3cccs3)o2)cc1 | -0.479%
6 | COc1ccc2cc(S(=O)(=O)Nc3ccccn3)ccc2c1 | 13.9%
7 | CC1(NC(=O)C2CCCCC2)CCS(=O)(=O)C1 (stereo not shown) | 10.4%
8 | O=C(c1ccco1)N1CCc2[nH]nc(-c3ccccc3)c2C1 | 14.9%
9 | C=CCC1S/C(=N/N=C/c2cccs2)NC1=O (stereo not shown) | 7.37%
10 | Cc1cccc(NC(=O)c2n[nH]c([N+](=O)[O-])c2Br)c1C | 7.29%
11 | O=C(C1CCN(S(=O)(=O)c2cccc3nsnc23)CC1)N1CCCCC1 | 17.7%
12 | O=C(NCc1ccc(Cl)cc1)c1cccc2c1C(=O)N(CC1CCCO1)C2 (stereo not shown) | -7.8%
13 | O=C(Nc1ccccc1)C1=C[C@H](c2ccc3c(c2)OCO3)C[C@H](OCc2ccc(CO)cc2)O1 | 9.11%
14 | Cc1ccc(C(=O)/C=C/c2c[nH]c3ccccc23)cc1 | 0.301%
15 | COCCCn1c(SCC(=O)NC2CCCCC2)nnc1-c1ccco1 | 11.6%
16 | CS(=O)(=O)Nc1ccc(C(=O)N2CCCC2)cc1 | 3.07%
17 | CC(C)(C)c1ccc(C(=O)NNC(=O)Cc2ccccc2)cc1 | 19%
18 | Cc1ccc(Nc2nnc(SCC(=O)Nc3ccccc3[N+](=O)[O-])s2)cc1 | 8.96%
19 | O=[N+]([O-])c1cc(S(=O)(=O)/N=C(/c2ccccc2)N2CCOCC2)ccc1Cl | 4.79%
20 | CCOc1ccc2[nH]c3c(N4CCN(c5ccccn5)CC4)ncnc3c2c1 | -13%
21 | Oc1ccccc1C(=S)N1CCN(c2cccc(Cl)c2)CC1 | 4.72%
22 | O=C(CNS(=O)(=O)c1cccs1)N1CCc2ccccc2C1 | 6.19%

Row | Compound | hERG current change (%, negative = inhibition) at 1uM
23 | NC(=O)c1ccc(NC(=O)COC(=O)CC2Sc3ccccc3NC2=O)cc1 (stereo not shown) | 14.3%
24 | Cc1nc(Nc2ccc(F)cc2)nc(Nc2ccc(F)cc2)c1[N+](=O)[O-] | 9.4%
25 | CCN(CC(=O)NC(C)C)C(=O)c1ccc(S(=O)(=O)N(C)c2ccccc2OC)cc1 | 10.8%
26 | O=C1NC(=O)N(Cc2ccccc2Cl)C(=O)/C1=C/c1cccs1 | 12.6%
27 | O=C(Nc1cc(C(F)(F)F)ccc1Cl)c1cccnc1 | 2.82%
28 | O=C(NC(=O)c1cnccc1C(F)(F)F)Nc1ccccc1 | 11%
29 | C[C@]12CCC(=O)C=C1[C@H](O)C[C@@H]1[C@@H]2[C@@H](O)C[C@@]2(C)[C@H]1CC[C@]2(O)C(=O)CO | 11.5%
30 | CC(=O)C1=C(C)OC(N)=C(C#N)C1c1cc([N+](=O)[O-])ccc1Cl (stereo not shown) | 4.51%
31 | COc1ccccc1CNC(=O)c1ccc(NC2=NC3CS(=O)(=O)CC3S2)cc1 (stereo not shown) | 15%
32 | COCCn1c(SCC(=O)Nc2cc(C)on2)nc2ccccc21 | 10.4%
33 | CC(C)NC(=S)N/N=C/c1sc(N2CCCCC2)nc1-c1cccs1 | -2.03%
34 | CCCCN(C(=O)CSc1nc2ccccc2n1CC)C1CCS(=O)(=O)C1 (stereo not shown) | 6.7%
35 | COc1ccc2cc(OCC(=O)NNC(=O)Nc3ccc(OC)c(OC)c3)ccc2c1 | 8.81%
36 | CC(c1ccco1)N(C(=O)c1cccs1)c1ccccn1 (stereo not shown) | 10.1%
37 | COCCNC(=O)c1ccc(C)c(NC(=O)C2=C(C)OCCS2)c1 | 10.1%
38 | Nc1nonc1NC(=O)CSc1nc2ccccc2s1 | 11.2%
39 | C/C(=N/NS(=O)(=O)c1ccc(C)cc1)[C@H]1C[C@@H]1c1ccccc1 | -0.507%
40 | O=C(NCCCN1CCCC1=O)C1CCN(S(=O)(=O)c2c(Cl)cccc2Cl)CC1 | -2.09%
41 | CC1(C)C(=O)Nc2ccccc2N1C(=O)COC(=O)C1CCCCC1 | 2.65%
42 | Cc1cccc(OP(=O)(Nc2cccnc2)Oc2cccc(C)c2)c1 | -21.4%
43 | Cc1cc(NC(=O)CCC2CCCCC2)no1 | 1.07%
44 | O=C(Nc1cccc(C(=O)N2CCOCC2)c1)c1ccccc1 | -3.28%

Row | Compound | hERG current change (%, negative = inhibition) at 1uM
45 | CCOc1cc(C(=O)OCC(=O)Nc2ccc(SC(F)F)cc2)cc(OCC)c1OCC | 9.91%
46 | CC1(C)CC(CC(=O)Nc2ccccn2)C(=O)O1 (stereo not shown) | -5.36%
47 | CCOc1ccc(NC(=O)CN(C)C(=O)c2cn(-c3ccc(F)cc3)nc2-c2cccc(OC)c2)cc1OCC | 10.6%
48 | COc1ccccc1NC(=O)c1cccc(S(=O)(=O)N2CCN(Cc3ccccc3)CC2)c1 | 2.65%
49 | CCCCNC(=O)NNC(=O)c1ccoc1C | 12.2%
50 | CCc1ccc(N(CC(=O)NC2CCCCC2)C(=O)CCC(=O)Nc2ccccn2)cc1 | 7.77%
51 | CCC(=O)Oc1ccc(C(=O)Nc2cccc(C(=O)c3ccccc3)c2)cc1 | 10.6%
52 | COc1cc(/C=C/C(=O)OCC(=O)Nc2ccc(NC(C)=O)cc2)cc(S(=O)(=O)N2CCc3ccccc32)c1OC | 6.62%
53 | COC(=O)c1ccc(CN(c2ccccc2Cl)S(C)(=O)=O)cc1 | 28%
54 | Cc1ccc(-c2cn(-c3ccccc3)c(SCC(N)=O)n2)cc1C | -2%
55 | c1ccc(-c2csc3nnc(SCc4ccc5c(c4)OCCO5)n23)cc1 | 11%
56 | C#Cc1ccc([C@H]2C=C(C(=O)NCc3ccccc3)O[C@@H](OCC)[C@@H]2CCCO)cc1 | 11.8%
57 | O=C(O)CCC(=O)c1ccc2c(c1)OCCO2 | 6.21%
58 | CNC(=O)C(=O)NCCCN1CCOCC1 | 6.67%
59 | CCCCN1CCNC[C@H]1Cc1ccc(O)cc1 | -1.77%
60 | Cc1ccc(-n2ccc(=O)c(C(=O)Nc3ccc(S(=O)(=O)Nc4onc(C)c4C)cc3)n2)cc1 | 13.9%
61 | COc1ccc(Br)cc1C(=O)Nc1cccc(-c2nnc(-c3ccco3)o2)c1 | 5.01%
62 | CSc1sc(C(=O)NNC(C)=O)c2c1C=CCC2 | 11.2%
63 | O=C(CSc1n[nH]c(-c2ccccc2)n1)Nc1ccccc1O | 12.6%
64 | CCn1cc(C(=O)OCC(=O)c2cc(C)n(-c3cccc(C(F)(F)F)c3)c2C)c(=O)c2ccc(C)nc21 | 15.1%
65 | CC(C)(C)c1ccc(C(=O)N2CCNCC2)cc1.Cl | -15.7%
66 | Cc1ccc(CN2C3CCCC2CC(NC(=O)c2ccc(C)cc2)C3)cc1 (stereo not shown) | -77.3%

Row | Compound | hERG current change (%, negative = inhibition) at 1uM
67 | COc1cc(/C=C2/SC(=O)NC2=O)ccc1OC(=O)c1ccco1 | -5.08%
68 | CCN1C(=O)/C(=C2/Sc3ccc(OC)cc3N2C)SC1=Nc1cccc(O)c1 | 13.2%
69 | O=C(COc1ccc(S(=O)(=O)N2CCCC2)cc1)NCCC1=CCCCC1 | 2.14%
70 | S=c1[nH]nc(-c2cccs2)n1Cc1ccccc1 | 12.8%
71 | CCCCn1c(NC(=O)c2ccccc2Cl)c(C#N)c2nc3ccccc3nc21 | 8.64%
72 | CCOC(=O)c1sc(NC(=O)CSc2nnnn2-c2ccc(C)cc2)c(C(=O)OCC)c1C | 5.37%
73 | C/C(N)=C(/C#N)C(=O)COC(=O)CSc1ccc2ccccc2c1 | 4.58%
74 | COc1ccc(C(=O)NC2CCN(S(=O)(=O)c3ccccc3)CC2)cc1 | 12.9%
75 | CC(=O)c1c(O)c2ccccc2n(C2CCCCC2)c1=O | 0.55%
76 | CCN1C(=O)C(O)(C2COC(C)(C)CC2=O)c2ccccc21 (stereo not shown) | 10.2%
77 | CN(Cc1c(C(=O)N(C)Cc2ccccc2)nc2ccccn12)CC1Cc2ccccc2O1 (stereo not shown) | -13.4%
78 | O=C(Nc1ccnn1C1CCN(Cc2ccc(CO)o2)CC1)c1ccccc1Cl | 6.94%
79 | COc1ccc(OCc2nnc(SCC(=O)NCc3ccco3)o2)cc1 | 8%
80 | O=C(COc1ccc(-n2ccnc2)cc1)Nc1cccc(Cl)c1 | -3.13%
81 | Cc1csc(/C(=N/OC(=O)c2ccco2)C(N)=O)n1 | 11.2%
82 | CCOC(=O)N1CCC(NC(=O)c2cc(C(=O)NCc3cccc(Cl)c3)ccc2CO)CC1 | 11.5%
83 | COc1ccccc1NC(=O)C(C)OC(=O)COc1cccc2c1OC(C)(C)C2 (stereo not shown) | 1.18%
84 | COc1ccc(NC2CCCN(C(=O)c3ccccc3C(F)(F)F)C2)cc1 (stereo not shown) | 9.2%
85 | COc1ccc(-c2nnc(SC(C)C(=O)Nc3nccs3)n2-c2ccccc2)cc1OC (stereo not shown) | -4.2%
86 | CN(C)CCCn1c(SCC(=O)N2CC(=O)Nc3ccccc32)nc2ccccc2c1=O | 9.8%
87 | CC(=O)c1cc(OC(=O)N2CCOCC2)ccc1OC(=O)N1CCOCC1 | 6.41%
88 | CCc1nc2oc3ccccc3c(=O)c2cc1C(=O)OC | 9.54%
